# ± gives the standard deviation. This is a selection; strong and weak results do not stand in their true shares.
# Test system: MIWI (PIWIL1) piRISC loaded with L1MC piRNA (30 nt)
# Experiment: pre-steady-state target cleavage rate (min^-1); MIWI and MILI are mouse PIWI proteins and EfPiwi is from a freshwater sponge; tags in brackets are library labels; higher = faster piRNA-guided slicing of the target
# Details: guide: L1MC piRNA 5'p-UAACUAAAUACUAUGCAAGCUGUAGGUCCU; auxiliary factor: 500 nM mouse GTSF1
# In short: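 Active affinity-purified piRISC carrying one synthetic guide (1 nM) was mixed with a transcribed, DNA-blocked target RNA library […] in HEPES–potassium acetate buffer at 33 °C for 0–8 or 0–960 min, with or without 500 nM GTSF1 partner protein. Uncleaved targets were then sequenced and normalised to depth and to weakly complementary targets. Three trials were pooled, and k3 was capped at 0.0001 min^-1. A burst-and-steady-state fit was applied to obtain the pre-steady-state cleavage rate.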
# 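Further: 1 nM active piRISC with 0.1 nM target library at 33 °C single turnover.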
row,Sequence,pre-steady-state target cleavage rate
1,UCCUGGAACAGGAAGCAUAGUAUUUAGUAA,0.0207 ± 0.0047
2,UCCUCCUACAGCAACCAUAGUAUUUAGUAA,0.0869 ± 0.025
3,UCGACCUACAGCUUCGAUAGUAUUUACAAA,0.0356 ± 0.013
4,AGGACCUACAGCUUGCAUAUGUAUUUAGUUA,0.271 ± 0.11
5,UCCUGGAUGUCGAUGCAUAGUACUUAGUUA,0.00401 ± 0.0026
6,UCCUGGUACAGCUUGCAUAGUAUAAUGUAA,0.152 ± 0.042
7,UGCUGCUACAGCUUGCAUAGUAUUUUCAAA,0.353 ± 0.062
8,UGGACCUACAGCUUGCAAUGUAUUUUCAAA,0.0195 ± 0.0055
9,UCCUGGUACAGCAAGCAUAGUAUUUAGAAA,0.123 ± 0.032
10,UCCUGGAUCAGGAAGCAUAGUAUUUAGUUA,0.00993 ± 0.0028
11,UCCUGGAUCAGCUUCCAUAGUAUUUAGUAA,0.0346 ± 0.0086
12,UCCUGGAUGAGCUUCCAUAGUAAUUAGUUA,0.00538 ± 0.0047
13,UCCUGGAUCACCUUGCAUAGUAUUUUCAAA,0.0512 ± 0.019
14,UCCUGGUACAGCUUGCAUAGUAUAAAGAAA,0.0796 ± 0.029
15,UCCUGCUACAGCUUCCAUAGUAAUUAGUUA,0.0892 ± 0.03
16,UCCUCCUACAGCAUGCAUAGUAUUUACAAA,0.47 ± 0.064
17,UCCUCCUACAGCUUCCAUAGUAUUUAGAUA,0.0587 ± 0.021
18,UCCUGGUACACCUUGCAUAGUAUUUAGAAA,0.25 ± 0.082
19,UCCUGGAACAGCUUGGAUAGUAUUUUCAAA,0.012 ± 0.0051
20,UCCUGGAUGUCGAUGCAUGGUAUUUAGUUA,0.00397 ± 0.0034
21,AGGACCUACAGCUAGCAUAGUAUUUUCAAA,0.42 ± 0.052
22,UCCUGCUACAGCAACCAUAGUAUUUAGUAA,0.172 ± 0.037
23,UCCUGGAUGUCCUUGCAUAGUAAUUACUUA,0.00665 ± 0.0043
24,UCCUGCUACAGCUACCAUAGUAUUUAGAAA,0.0944 ± 0.03

# Reference: the supplement of paper PMC10338343
